Source: PubChem BioAssay AID904 (National Center for Advancing Translational Sciences (NCATS), 2007)
The campaign covered roughly 55,000 compounds. About 530 (0.96%) were called active. The inconclusive results got no clear call from the source; some entries with a clear call stand among them for comparison. Calls come from the whole dose curve; as a rule, active = well fitted cell-killing curve with a large enough effect; inconclusive = small, poorly fitted or top-dose-only effect; inactive = no such curve, though single readings can be large or run the other way. A potency beside an inconclusive call is a rough fit, not a confirmed value.

Experiment: qHTS Screen for Compounds that Selectively Target Cancer Cells with p53 Mutations: Cytotoxicity of p53 Null Cells at the Nonpermissive Temperature; note: nearly all actives have a fitted effect of over 50% in size;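 for activity, negative = cell killing: 0% = DMSO only and -100% = full killing by 100 µM tamoxifen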
Settings: H1299 p53-null (neo) cells, 39C, ATPlite viability, 24 h; activity, negative = cell killing: at 46.1 µM (top of the series)
In short: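 Following overnight plating at 37C (600 cells/well), H1299-neo or H1299-p53A138V cells are dosed up to 46 uM. Incubation lasts 24 hr at 39C before ATP detection.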
Potency is the fitted concentration of half-maximal effect; tags give direction and shape of the fitted curve.

| SMILES | Potency | activity, negative = cell killing |
| --- | --- | --- |
| Clc1ccc2nc(-c3ccc(N4CCOCC4)cc3)c(Nc3ccccc3)n2c1 | inactive | – |
| CC(=O)c1ccc(NC(=O)c2nc(-c3ccccc3)n(-c3ccc(C)cc3)n2)cc1 | inactive | – |
| CCCn1cnc2cc(NC(=O)c3cc(OC)c(OC)c(OC)c3)ccc21 | inconclusive: 10 µM [cytotoxic, single point] | – |
| COc1ccccc1Cc1nc2ccccc2nc1SCC(=O)Nc1c(C)cccc1C | inactive | – |
| COc1ccc(N(CC(C)C)S(=O)(=O)c2nnc(NC(=O)c3ccco3)s2)cc1 | inconclusive: 0.199 µM [cytotoxic, full curve, poor fit] | – |
| CCc1ccc(NC(=O)Cn2nc(C(F)(F)F)c3c2CCCC3)cc1 | inactive | – |
| O=C(CCCn1c(=O)[nH]c2ccc(Br)cc2c1=O)N1CCN(c2cccc(Cl)c2)CC1 | inconclusive: 12.6 µM [cytotoxic, single point] | – |
| O=C(CSc1nncn2c1cc1occc12)Nc1ccc(F)c(Cl)c1 | inactive | – |
| CCCCn1c(=N)n(CCCOc2ccc(F)cc2)c2ccccc21 | inconclusive: 31.6 µM [cytotoxic, single point] | – |
| CCS(=O)(=O)Nc1ccc(-c2cn3ccsc3n2)cc1 | inconclusive: 20 µM [cytotoxic, partial curve] | – |
| COc1ccc(-c2nc3sc(CCNC(=O)c4ccco4)c(C)n3n2)cc1 | inconclusive: 7.94 µM [cytotoxic, partial curve, poor fit] | – |
| Cn1cc(CN(C(=O)Nc2ccccc2)C2CCCCC2)c2ccccc21 | inconclusive: 25.1 µM [cytotoxic, partial curve] | – |
| COC(=O)c1c(C)oc2ccc(N(C(=O)c3ccncc3)S(=O)(=O)c3ccc(OC)cc3)cc12 | inconclusive: 1 µM [cytotoxic, partial curve] | – |
| CCOC(=O)Nc1ccc([N+](=O)[O-])cc1C | – | inactive: 1.07% [at 1.84 µM] |
| CCCN(CCC)c1ccc(C2N=C(N)Nc3nc4ccccc4n32)cc1 (stereo not given) | active: 3.16 µM | – |
| COc1ccc(NC(=O)c2cc3c(s2)-c2c(C)cccc2OC3)cc1Cl | inactive | – |
| Cc1ccn2c(Nc3ccc4c(c3)OCCO4)c(-c3ccc(C)o3)nc2c1 | inconclusive: 11.2 µM [cytotoxic, partial curve] | – |
| CCOC(=O)c1c(C)n(-c2ccccc2)c2ccc(OC(=O)COc3ccc(Cl)cc3)cc12 | inactive | – |
| COc1ccc(Cl)cc1NC(=O)CNc1ccccc1F | – | inactive: 28.8% [at 1.84 µM] |
| COc1c(C)cccc1C(=O)Nc1ccc(-c2nc3ccccc3s2)c(Cl)c1 | inconclusive: 2.51 µM [cytotoxic, partial curve] | – |
